# Some of the results follow.
# Key:
# HSkMC = human skeletal muscle cells; experiment: cytotoxicity call (relative viability < 0.9); details: 10 µM
# HepG2 = experiment: cytotoxicity call (relative viability < 0.9); details: 10 µM
# S. aureus RN4220 = experiment: growth inhibition call (relative growth <= 0.2); details: 50 µM
SMILES,cytotoxicity call (HSkMC),cytotoxicity call (HepG2),growth inhibition call (S. aureus RN4220)
CC(C)=CCC[C@]1(C)[C@@H](CC=C(C)C)C[C@]2(CC=C(C)C)C(=O)C(CC=C(C)C)=C(O)[C@@]1(C(=O)C(C)C)C2=O,inactive,inactive,active
C[C@H]1CN([C@@H](C)CO)C(=O)Cc2cc(NS(=O)(=O)c3cn(C)cn3)ccc2O[C@H]1CN(C)S(=O)(=O)c1cccs1,inactive,inactive,inactive
Cc1cc(C=Cc2ccc3cc(N(C)C)ccc3[n+]2C)c(C)n1-c1ccccc1.O=C([O-])c1cc2ccccc2c(Cc2c(O)c(C(=O)O)cc3ccccc23)c1O,active,active,inactive
COCC#Cc1ccc2c(c1)O[C@@H](CN(C)C(=O)c1ccccc1)[C@H](C)CN([C@@H](C)CO)S2(=O)=O,inactive,inactive,inactive
C=CCNC(=O)[C@H]1[C@@H]2C(=O)O[C@@H](c3ccccc3)[C@@H](c3ccccc3)N2[C@@H](c2ccccc2OCCO)[C@]12C(=O)N(C(=O)OCCOC)c1ccc(C#CC3(O)CCCCCC3)cc12,inactive,active,inactive
Cc1ccc(S(=O)(=O)N(C)C[C@@H]2OCCCC[C@H](C)Oc3ccc(NC(=O)Nc4c(C)noc4C)cc3C(=O)N([C@@H](C)CO)C[C@H]2C)cc1,inactive,inactive,inactive
CC(C)(C)[S@@](=O)N1Cc2cc(C(=O)NCCc3ccncc3)nc(-c3cccc(-c4ccc(C#N)cc4)c3)c2[C@H]1CCO,inactive,inactive,inactive
C[C@@H]1CCCCO[C@@H](CN(C)C(=O)Nc2ccccc2)[C@@H](C)CN([C@H](C)CO)C(=O)c2cc(NC(=O)Cc3ccccc3)ccc2O1,inactive,inactive,inactive
Cc1noc(C)c1NC(=O)Nc1ccc2c(c1)C(=O)N([C@@H](C)CO)C[C@H](C)[C@H](CN(C)S(=O)(=O)c1cccs1)OCCCC[C@@H](C)O2,inactive,inactive,inactive
CO[C@@H]1CN(C)C(=O)c2cc(NS(=O)(=O)c3cn(C)cn3)ccc2OC[C@@H](C)N(CCC(F)(F)F)C[C@@H]1C,inactive,inactive,inactive
CC(C)(CO)C(O)C(=O)NCCCO (configuration not stated),inactive,inactive,inactive
COc1ccc(NC(=O)CSC2=NC(C)=C(C(=O)Nc3nc4ccccc4s3)[C@H](c3ccco3)C2C#N)cc1 (some centres not stated),inactive,inactive,inactive
C[C@@H]1CCCCO[C@H](CN(C)C(=O)NC2CCCCC2)[C@@H](C)CN([C@H](C)CO)C(=O)c2cc(NC(=O)Nc3cccc4ccccc34)ccc2O1,inactive,inactive,inactive
CCC(=O)O[C@H]1[C@@H]2CC3=C4CC(=O)O[C@@H](c5ccoc5)[C@]4(C)CC[C@@H]3[C@@](C)(C2=O)[C@@H](CC(=O)OC)C1(C)C,inactive,inactive,inactive
C[C@H](CO)N1C[C@H](C)[C@H](CN(C)S(=O)(=O)c2ccc(Cl)cc2)Oc2c(NC(=O)C3CCOCC3)cccc2C1=O,inactive,inactive,inactive
C[C@H]1CN([C@@H](C)CO)C(=O)c2c(c3ccccc3n2C)-c2ccccc2CO[C@@H]1CN(C)S(=O)(=O)c1ccc(C(F)(F)F)cc1,inactive,inactive,inactive
COc1ccc2c3c([nH]c2c1)[C@@H](CO)N(C[C@]13CCN(CC1)Cc1cc(ccc1F)F)C(=O)Nc1ccc(cc1)F,inactive,inactive,inactive
CC(=O)N[C@H]1[C@H]([C@H](O)[C@H](O)CO)O[C@](O)(C(=O)O)C[C@@H]1O,inactive,inactive,inactive
C[C@H]1CN([C@@H](C)CO)C(=O)c2cc(NC(=O)Cc3ccccc3)ccc2O[C@H]1CN(C)C(=O)Nc1ccc(C(F)(F)F)cc1,inactive,inactive,inactive
COc1cccc(C#Cc2cnc3c(c2)C(=O)N([C@@H](C)CO)C[C@H](C)[C@@H](CN(C)C(=O)C2CCC2)O3)c1,inactive,inactive,inactive
O=S1(=O)CC[C@H](N2CCOCC2)C1,inactive,inactive,inactive
Cc1noc(C)c1NC(=O)N(C)C[C@@H]1OCCCC[C@@H](C)Oc2ccc(NC(=O)NC3CCCCC3)cc2C(=O)N([C@H](C)CO)C[C@H]1C,inactive,inactive,inactive
COc1ccc(C#Cc2ccc3c(c2)O[C@H](CN(C)S(=O)(=O)c2ccccc2F)[C@@H](C)CN([C@H](C)CO)S3(=O)=O)cc1,inactive,inactive,inactive
Cc1ccc(S(=O)(=O)N(C)C[C@H]2Oc3ccc(NC(=O)CCN4CCOCC4)cc3CC(=O)N([C@@H](C)CO)C[C@H]2C)cc1,inactive,inactive,inactive

# — the antibiotic and cytotoxicity screens of Wong et al. (2023)
